From the supplement of paper PMC3334620
Whole data set: some 33,000 sequences, median “E-score (-0.5 to 0.5)” near -0.043, cut for the highest 2% near 0.37. Some of the results follow.

What follows are sequences tested against T1, Upc2 (UniProt Q12151) (assay: PBM E-score (8-mer binding enrichment) (E-score (-0.5 to 0.5)); higher = stronger / more preferred TF binding; most listed sequences are background and not binding sites). Conditions: protein concentration: 200 nM; construct: GST-full length.
T1 sequence: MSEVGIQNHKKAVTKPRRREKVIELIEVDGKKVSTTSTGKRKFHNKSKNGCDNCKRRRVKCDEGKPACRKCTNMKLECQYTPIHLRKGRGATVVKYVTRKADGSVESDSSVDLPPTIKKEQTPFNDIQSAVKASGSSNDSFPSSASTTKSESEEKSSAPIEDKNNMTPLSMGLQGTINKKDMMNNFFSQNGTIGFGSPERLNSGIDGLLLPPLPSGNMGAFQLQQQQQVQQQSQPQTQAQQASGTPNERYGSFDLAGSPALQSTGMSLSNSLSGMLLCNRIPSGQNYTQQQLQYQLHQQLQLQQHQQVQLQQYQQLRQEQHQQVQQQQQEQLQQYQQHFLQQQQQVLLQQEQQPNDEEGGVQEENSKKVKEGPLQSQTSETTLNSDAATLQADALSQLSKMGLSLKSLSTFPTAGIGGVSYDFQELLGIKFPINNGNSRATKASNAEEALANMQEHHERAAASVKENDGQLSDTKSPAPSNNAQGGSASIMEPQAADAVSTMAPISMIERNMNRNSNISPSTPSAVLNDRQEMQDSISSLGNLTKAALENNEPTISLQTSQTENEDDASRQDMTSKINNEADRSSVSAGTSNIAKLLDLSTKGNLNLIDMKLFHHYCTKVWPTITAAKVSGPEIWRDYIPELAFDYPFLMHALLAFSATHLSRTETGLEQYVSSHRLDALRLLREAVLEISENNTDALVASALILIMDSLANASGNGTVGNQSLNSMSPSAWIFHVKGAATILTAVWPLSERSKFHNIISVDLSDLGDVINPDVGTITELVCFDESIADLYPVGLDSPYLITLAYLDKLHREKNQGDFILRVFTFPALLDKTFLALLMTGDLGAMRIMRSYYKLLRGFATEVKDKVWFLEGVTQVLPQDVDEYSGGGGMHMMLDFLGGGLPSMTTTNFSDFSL
How it was run: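 E-scores (a modified Wilcoxon-Mann-Whitney statistic) were assigned by the Universal PBM Analysis Suite to every ungapped eight-base word pooled with its reverse complement. The input came from universal all-10-mer Agilent arrays made double-stranded by primer extension and probed with GST-tagged yeast transcription factors at about 100-200 nM. Fluorescent anti-GST detected bound protein, and masliner normalised the scans.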

Row | Sequence | PBM E-score
1 | GATGCTGA | -0.111
2 | ACGGAAAG | -0.0107
3 | GACGCTAC | 0.0447
4 | GGCCGCGA | -0.141
5 | AGGAATTG | -0.0648
6 | ATCCCGGG | -0.0355
7 | CCGAGTAG | -0.0601
8 | CAGCTGAA | -0.137
9 | TCTTCACA | 0.0646
10 | CGCACAAC | 0.14
11 | ATCTCCGA | 0.0296
12 | ATGAAGCC | -0.0698
13 | GTGATATA | 0.036
14 | CACCTAGC | -0.217
15 | ACTGAGTC | 0.0333
16 | ACTGAGGC | -0.0402
17 | AATCTATC | -0.201
18 | AACTGGAT | -0.00533
19 | GCACGGGA | 0.0149
20 | GACCTTTA | -0.0186
21 | CTGCCCGC | -0.194
22 | CGGTTATA | 0.255
23 | GAAGCGTA | 0.223
24 | CCTTTCCA | -0.132
25 | GCCTCTAA | -0.16

Row | Sequence | PBM E-score
26 | CGATAACC | 0.188
27 | GGTCAGAC | -0.316
28 | ATCCATCA | -0.195
29 | CAGTGCCC | -0.166
30 | AATACTCC | -0.135
31 | CGTCGGGC | -0.231
32 | GAACTAAC | 0.085
33 | CTTATCCC | -0.0201
34 | CAGTCGAA | -0.102
35 | AAGTTATT | 0.045
36 | ACGCTAAA | 0.109
37 | GGCCATCA | -0.267
38 | ACCTTCAT | -0.0597
39 | GATCTGAA | -0.213
40 | GGCGAGAC | -0.0974
41 | ATTTTGTC | -0.0517
42 | CTGACTCA | -0.284
43 | CAGTACGC | 0.037
44 | CAATGTGG | -0.152
45 | ACTAGATA | 0.102
46 | ATAGTTTC | -0.0466
47 | ATAAAGTG | -0.00653
48 | CCTAGGAA | -0.186
49 | GATGTCTA | 0.125
50 | AATGGAAT | -0.162

Row | Sequence | PBM E-score
51 | CCTTTACG | 0.418
52 | CTGAAGCC | -0.0835
53 | GCTTTGGA | 0.0666
54 | AACATCGC | -0.158
55 | CAACTCCA | -0.291
56 | AATTGGAT | -0.0619
57 | AAACACGC | 0.0476
58 | CAAGTAGG | -0.143
59 | GACCTCTA | 0.104
60 | GACGATCA | -0.0322
61 | ACGTCGCG | 0.0842
62 | GTCATAAA | 0.0807
63 | AGAAATAT | 0.144
64 | CGTCGAGA | 0.067
65 | AATAACTA | 0.0341
66 | CGGAGTAA | 0.00492
67 | GACGTGGC | -0.245
68 | ATTAAAAT | -0.0575
69 | CTTATTCA | -0.114
70 | TAATAAGA | 0.0807
71 | CGGGACTC | -0.059
72 | ATCCCTGG | -0.298
73 | GCAATGAC | -0.234
74 | CGGTAGTC | -0.0623
75 | TCCCACAA | -0.14

Row | Sequence | PBM E-score
76 | CCATTAAG | -0.086
77 | AAAACATT | 0.0244
78 | AGCATCGA | 0.0299
79 | AACATCTT | 0.00211
80 | TGTGCGAA | 0.0333
81 | ATGCAAGA | -0.281
82 | GAAGTCTA | -0.107
83 | ACCAGGCG | -0.143
84 | AGGATAAT | 0.0766
85 | GTACTGCA | 0.0397
86 | ACTGCTCT | -0.199
87 | GTGTCAGA | -0.302
88 | GACCAATC | -0.117
89 | TCCCTGCA | -0.0721
90 | GACGTGCC | 0.00781
91 | AGGGGGTC | -0.281
92 | ATGGCCTA | -0.0709
93 | ATTAACGG | 0.185
94 | GTTGAGAA | -0.115
95 | CTACATCC | -0.108
96 | CATAAGTC | 0.0192
97 | CAGTACAC | 0.0965
98 | AATAGTGC | -0.124
99 | GGACGTCC | -0.116
100 | CCCCAACC | -0.14

Row | Sequence | PBM E-score
101 | CCCGGGAG | -0.218
102 | GATTTCGA | 0.0126
103 | CAGAACAG | -0.13
104 | AGAAAGAC | -0.154
105 | GAAATGCC | -0.0692
106 | AGGCCGTA | 0.355
107 | CGCATGCA | 0.0288
108 | AGCGGTGA | -0.0679
109 | ACTAAGAG | -0.00658
110 | AGTAATAA | -0.0853
111 | CCTGCTAA | -0.189
112 | GCGCACCA | 0.0742
113 | AGCCGTAA | 0.279
114 | TCTAAACA | 0.093
115 | GTATGTCA | 0.0928
116 | GAGCAGCC | 0.00738
117 | AGGTAGTA | 0.0448
118 | CAGCCCGA | -0.171
119 | ACGCAGCG | 0.0533
120 | ACTCTTCC | -0.1
121 | AACACTGG | -0.122
122 | CGATGGAA | 0.02
123 | ACAGCCAG | -0.0248
124 | ATTCATCA | -0.152
125 | GAAGACCA | -0.105

Row | Sequence | PBM E-score
126 | ATAAGAGC | 0.232
127 | GAGTAGAA | 0.0248
128 | ACGCGGCC | -0.0119
129 | CGGAAGGC | -0.343
130 | GAGGGCAA | 0.00341
131 | TACTGGCA | -0.0792
132 | CACCTAGA | -0.153
133 | TACTCGGA | 0.135
134 | AACCTACA | -0.0358
135 | AGGAACAC | 0.0909
136 | ATGCGACG | 0.306
137 | AGTCATTC | -0.146
138 | CTTACGAA | 0.399
139 | CTATGCAG | -0.252
140 | AAAATTGT | -0.0219
141 | AAGAGGAT | -0.184
142 | ACAAGATC | -0.143
143 | CTTCTCCA | -0.304
144 | CATATCGG | -0.217
145 | AGTTCCCA | 0.0941
146 | AGGGTCCG | -0.0147
147 | ACAGGTGA | -0.177
148 | CAGGACGC | -0.0928
149 | TGTGTCAA | -0.126
150 | CAAATATA | -0.104

Row | Sequence | PBM E-score
151 | CGCGATGC | 0.107
152 | GTCCTGGA | -0.286
153 | AAAATCGG | -0.0937
154 | ACCTGTAT | 0.112
155 | CCGCGTTC | 0.228
156 | GACGATGA | -0.00259
157 | CAGGGGGC | -0.183
158 | AGCGGTAG | 0.0244
159 | GCCCGCGA | -0.0163
160 | ATAGAAGC | -0.051
161 | CGTAGAAC | 0.219
162 | AACTCACC | -0.206
163 | ACAATCTC | -0.0376
164 | GAAAAATC | 0.107
165 | GACGTTTA | 0.366
166 | CTGTCTAC | -0.0534
167 | ACTGGCCG | -0.0772
168 | AGGATGTA | 0.117
169 | GCAACGGA | 0.129
170 | GTTTGAGA | 0.0947
171 | CAGTACCG | -0.103
172 | TAAGCAAA | 0.181
